Test results: the RNAGym collection of RNA variant scans (doi:10.1093/nar/gkz1192)
The source gives no read counts; variants with many changes may rest on few reads.

B1: CPEB3 Ribozyme (parent)
chain: UAACAGGGGGCCACAGCAGAAGCGUUCACGUCGCAGCCCCUGUCAGAUUCUGGUGAAUCUGCGAAUUCUGCUGUAUAUCUC

Variants of: B1
Experiment: self-cleavage, relative activity (ratio to wild type); higher = more cleavage; in vitro, sequencing
Outline: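 Libraries of CPEB3 self-cleaving ribozyme mutants came from rounds of error-prone PCR and carried barcodes, which DNA sequencing matched to variants. In vitro transcription used T7 RNA polymerase at 37°C for 5 hours, with a further 15 min in DNase I before EDTA stopped the reaction; the ribozymes cleaved during both steps. The RNA was reverse transcribed with template switching and sequenced on Illumina. Relative activity is the cleaved/total read fraction of a variant divided by that of the unmutated ribozyme, averaged over three batches with at least 5 reads.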

| Variant | self-cleavage |
| --- | --- |
| A57G U60A A64U U72C | 0.27 |
| A57G U60A G63A U76C | 0.23 |
| A57G U60A U67C | 0.14 |
| A57G U60C U67C | 0.24 |
| A57G U60C U72C | 0.42 |
| A57G U60C U76C | 0.48 |
| A57G U66A U72A | 0.47 |
| A57G U67C A75U U80A | 0.44 |
| A57G U67C U72C | 0.46 |
| A57G U69A A77U | 0.49 |
| A57G U69A U76C | 0.7 |
| A57G U69A U78C | 0.5 |
| A57G U69A U80A | 0.14 |
| A57G U69G U80A | 0.75 |
| A57G U72A U74A | 1.08 |
| A57G U72C G73A U76C | 1.22 |
| A57G U72C U76C | 0.65 |
| A57G U74C U80A | 1.27 |
| A57U A64G U78C | 0.55 |
| A57U A64U A65C | 0.1 |
| A57U C68U U72C | 0.46 |
| A57U U58A A64G U67A | 0.15 |

| Variant | self-cleavage |
| --- | --- |
| A57U U58C U76C | 0.21 |
| A57U U66C A77U U80C | 0.24 |
| A57U U69C U78C | 0.47 |
| U58A A64U U67C U69C | 0.52 |
| U58A A65G U80C | 0.14 |
| U58A A77G U80C | 0.38 |
| U58A C68A G73A | 0.23 |
| U58A U67C C68U U72C | 0.16 |
| U58A U74C U76A | 0.62 |
| U58C A64G U67C | 0.31 |
| U58C A64G U72C U78C | 0.69 |
| U58C A64U U76C | 0.14 |
| U58C A65G A75U U80C | 0.24 |
| U58C C59G U60C | 0.21 |
| U58C C62A U72C A75G | 0.35 |
| U58C C62G U67A | 0.2 |
| U58C G63A U78A | 0.63 |
| U58C U60A A64U U69C C81U | 0.16 |
| U58C U60A A64U U72A A75U U80A | 0.27 |
| U58C U60A U66C | 0.16 |
| U58C U60A U69C | 0.27 |
| U58C U60A U80A | 0.21 |

| Variant | self-cleavage |
| --- | --- |
| U58C U60C U66A U80C | 0.21 |
| U58C U60C U80C | 0.19 |
| U58C U66C U76A | 0.15 |
| U58C U67C U69A | 0.2 |
| U58G U69C A75G U78C | 0.19 |
| U58G U74C C81U | 0.79 |
| C59A C62U U72C | 0.06 |
| C59A U78A C79A | 0.72 |
| C59G G70A U78C | 0.26 |
| C59G U60C A75G | 0.12 |
| C59G U60C U78C | 0.19 |
| C59U C71G U72C U76A | 0.21 |
| C59U U69C U80C | 0.35 |
| U60A A64G U67C | 0.35 |
| U60A A64G U72C | 0.33 |
| U60A A64G U78C | 0.4 |
| U60A A64U A65G | 0.26 |
| U60A A64U A65G U72A | 0.36 |
| U60A A65G G73A | 0.56 |
| U60A A65G U72A | 0.35 |
| U60A A75G U78G | 0.61 |
| U60A U66A G73A U74C | 0.38 |

| Variant | self-cleavage |
| --- | --- |
| U60A U66C U80C | 0.28 |
| U60A U67A U72A A75G | 0.26 |
| U60A U67C U69A U80C | 0.36 |
| U60A U67C U69G A75G U78C | 0.47 |
| U60A U69A U74C | 0.41 |
| U60A U72C G73U C81U | 0.73 |
| U60C A64U U76A A77U | 0.24 |
| U60C A65C U72A | 0.19 |
| U60C A65G U72A | 0.25 |
| U60C A75G U78C | 0.29 |
| U60C A77G U78C | 0.39 |
| U60C C71U A77U | 0.43 |
| U60C G63U U66C | 0.2 |
| U60C U66C A75U U76C | 0.32 |
| U60C U66C U80C | 0.18 |
| U60C U67A A77G | 0.25 |
| U60C U67C U72A | 0.34 |
| U60C U67C U78C | 0.28 |
| U60C U69A U72A | 0.32 |
| U60C U69C U72C U80A | 0.4 |
| U60C U69C U78C | 0.33 |
| U60C U69G U72A A75G | 0.11 |

| Variant | self-cleavage |
| --- | --- |
| U60C U72A A75G | 0.49 |
| U60C U72C A75U | 0.76 |
| U60C U72C C79A | 1.23 |
| U60C U74A U80C | 0.83 |
| U60C U76C A77U | 0.73 |
| U60C U78A U80A | 0.99 |
| U60G A65G A75U | 0.29 |
| U60G C62U U78C | 0.2 |
| G61A A75G A77U | 0.61 |
| G61A C62A U72A | 0.44 |
| G61A G63A U67C | 0.31 |
| G61A G70U U76A | 0.2 |
| G61A U66A U74C | 0.38 |
| G61A U66C U67A U80C | 0.21 |
| G61U U80C C81U | 0.93 |
| C62A G73A U80C | 0.14 |
| C62A G73C U76C | 0.14 |
| C62A U66C G70U U72G U80C | 0.06 |
| C62A U66C U78A | 0.14 |
